Measurements published in the supplement of paper PMC12009370.
The other results are listed elsewhere or left out. Single values are uncertain, as repeats are few or missing.

How the values were obtained:
IMR-32 [1] = assay: drug sensitivity score (DSS), single drug with vehicle (DSS (score)); higher = more cytotoxic; extreme values may be limits of the assay; details: 72 h; co-treatment: vehicle (DMSO)
SK-N-AS [2] = assay: as above; details: 72 h; co-treatment: vehicle (DMSO)
SK-N-AS [3] = assay: drug sensitivity score (DSS) in combination with SL-176 (DSS (score)); higher = more cytotoxic; extreme values may be limits of the assay; details: 72 h; co-treatment: SL-176 11.2 uM (IC25 in IMR-32)
IMR-32 [4] = assay: as above; details: 72 h; co-treatment: SL-176 11.2 uM (IC25 in IMR-32)
SK-N-AS [5] = assay: drug sensitivity score (DSS) in combination with GSK2830371 (DSS (score)); neuroblastoma lines; SL-176 and GSK2830371 are WIP1 inhibitors; higher = more cytotoxic; extreme values may be limits of the assay; details: 72 h; co-treatment: GSK2830371 at IC25 in IMR-32
IMR-32 [6] = assay: as above; details: 72 h; co-treatment: GSK2830371 at IC25 in IMR-32
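Wherever drug sensitivity score (DSS) in combination with GSK2830371 is given: neuroblastoma cells in 384-well plates, each compound at five concentrations, luminescence read-out, DSS derived from fitted concentration-response curve combining IC50 with minimum and maximum inhibition.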
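Wherever drug sensitivity score (DSS) in combination with SL-176 is given: cells in 384-well plates, luminescence read-out, each screening drug at five concentrations, DSS derived from the fitted concentration-response curve combining IC50 with minimum and maximum inhibition.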
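Wherever drug sensitivity score (DSS), single drug with vehicle is given: 384-well screen with five concentrations per compound and a luminescence read-out, DSS computed from the fitted dose-response curve combining IC50 with minimum and maximum inhibition.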

Row | Compound | drug sensitivity score (IMR-32 [1]) | drug sensitivity score (SK-N-AS [2]) | drug sensitivity score (SK-N-AS [3]) | drug sensitivity score (IMR-32 [4]) | drug sensitivity score (SK-N-AS [5]) | drug sensitivity score (IMR-32 [6])
1 | NCC(=O)Nc1ccc(-n2nc(C(F)(F)F)cc2-c2ccc3c(ccc4ccccc43)c2)cc1 | 19.3 | 0 | 0 | 13.9 | 0 | 20.8
2 | CCCS(=O)(=O)Nc1ccc(F)c(C(=O)c2c[nH]c3ncc(-c4ccc(Cl)cc4)cc23)c1F [Vemurafenib] | 0 | 0 | 0 | 0 | 0 | 0
3 | O=C(c1ccc(C(=O)N2CCC(N3CCCC3)CC2)c(Nc2ccccc2)c1)N1CCC(N2CCCC2)CC1 | 0 | 0 | 0 | 0 | 0 | 0
4 | CN1CCN(c2ccc(C(=O)Nc3n[nH]c4ccc(Cc5cc(F)cc(F)c5)cc34)c(NC3CCOCC3)c2)CC1 [Entrectinib] | 0 | 1.5 | 0.4 | 1.4 | 1.8 | 2
5 | CNC(=O)c1ccc(N2C(=S)N(c3ccc(C#N)c(C(F)(F)F)c3)C(=O)C2(C)C)cc1F [Enzalutamide] | 0 | 0 | 0.1 | 0 | 0 | 0
6 | Cc1ccc(NC(=O)c2ccc(CN3CC[C@H](N(C)C)C3)c(C(F)(F)F)c2)cc1Nc1nccc(-c2cncnc2)n1 [Bafetinib] | 0 | 0.3 | 0.9 | 0 | 1 | 0
7 | NS(=O)(=O)NCCNc1nonc1/C(=N/O)Nc1ccc(F)c(Br)c1 [Epacadostat] | 0 | 0.5 | 0 | 0 | 0.3 | 0.1
8 | CCN(CC)Cc1ccc2cc(COC(=O)Nc3ccc(C(=O)NO)cc3)ccc2c1 [Givinostat] | 13.2 | 8.8 | 8.1 | 14.2 | 8.4 | 16.3
9 | CO[C@H]1C(=O)[C@]2(C)[C@@H](OC)C[C@H]3OC[C@@]3(OC(C)=O)[C@H]2[C@H](OC(=O)c2ccccc2)[C@]2(O)C[C@H](OC(=O)[C@H](O)[C@@H](NC(=O)OC(C)(C)C)c3ccccc3)C(C)=C1C2(C)C [Cabazitaxel] | 45 | 28.4 | 28.3 | 43.6 | 28.7 | 43.7
10 | CN(CC(=O)N(Cc1ccc(C2CCCCC2)cc1)c1ccc(C(=O)O)cc1)S(=O)(=O)c1c(F)c(F)c(F)c(F)c1F | 6.3 | 6.3 | 6.9 | 6.5 | 5.7 | 5
11 | CC1(C)CCC(c2ccc(Cl)cc2)=C(CN2CCN(c3ccc(C(=O)NS(=O)(=O)c4ccc(N[C@H](CCN5CCOCC5)CSc5ccccc5)c(S(=O)(=O)C(F)(F)F)c4)cc3)CC2)C1 [Navitoclax] | 13.2 | 0 | 2.1 | 20.8 | 0 | 19.1
12 | C=CC(=O)Nc1cccc(Nc2nc(Nc3ccc(N4CCN(C(C)=O)CC4)cc3OC)ncc2C(F)(F)F)c1 [Rociletinib] | 9 | 6.6 | 7 | 7.8 | 7.4 | 6.1
13 | CC(C)C[C@H](NC(=O)[C@@H](COC(C)(C)C)NC(=O)[C@H](Cc1ccc(O)cc1)NC(=O)[C@H](CO)NC(=O)[C@H](Cc1c[nH]c2ccccc12)NC(=O)[C@H](Cc1cnc[nH]1)NC(=O)[C@@H]1CCC(=O)N1)C(=O)N[C@@H](CCCNC(=N)N)C(=O)N1CCC[C@H]1C(=O)NNC(N)=O [Goserelin] | 0 | 0 | 0 | 0.5 | 0 | 0
14 | C[C@@H](C(=O)O)c1ccc(-c2ccccc2)c(F)c1 [Tarenflurbil] | 0 | 0 | 3.6 | 0.2 | 0 | 0
15 | Cn1ncnc1[C@H]1c2n[nH]c(=O)c3cc(F)cc(c23)N[C@@H]1c1ccc(F)cc1 [Talazoparib] | 27 | 3.1 | 1.5 | 27.9 | 1.6 | 32.6
16 | FC(F)(F)c1ccc(CNc2ccc(Cc3c[nH]c4ncc(Cl)cc34)cn2)cn1 [Pexidartinib] | 3.7 | 0.9 | 1.1 | 5.5 | 0.7 | 4.6
17 | CC1(C)CCC(CN2CCN(c3ccc(C(=O)NS(=O)(=O)c4ccc(NCC5CCOCC5)c([N+](=O)[O-])c4)c(Oc4cnc5[nH]ccc5c4)c3)CC2)=C(c2ccc(Cl)cc2)C1 [Venetoclax] | 5.8 | 0 | 0 | 5.8 | 0 | 8.3
18 | O=C(c1cc(Cc2n[nH]c(=O)c3ccccc23)ccc1F)N1CCN(C(=O)C2CC2)CC1 [Olaparib] | 18.3 | 3.3 | 1.9 | 24.5 | 2.4 | 22.2
19 | Cc1cc2c(C(=O)NC[C@H](C)c3ccccc3)c(O)c(O)cc2c(O)c1-c1c(C)cc2c(C(=O)NC[C@H](C)c3ccccc3)c(O)c(O)cc2c1O [Sabutoclax] | 28.8 | 21.3 | 22.1 | 31.7 | 26 | 31.8
20 | Cc1ccc(Nc2nccc(N(C)c3ccc4c(C)n(C)nc4c3)n2)cc1S(N)(=O)=O [Pazopanib] | 2.7 | 0 | 0 | 2.4 | 0 | 0.6
21 | O=C(CCCCCCNC(=O)c1cnc(N(c2ccccc2)c2ccccc2)nc1)NO [Rocilinostat] | 9.7 | 8.8 | 7.6 | 10.5 | 8.2 | 12.8
22 | CCCCc1nc2cc(/C=C/C(=O)NO)ccc2n1CCN(CC)CC [Pracinostat] | 23.6 | 17.5 | 17 | 22.1 | 17.5 | 23.9
23 | N#CC[C@H](C1CCCC1)n1cc(-c2ncnc3[nH]ccc23)cn1 [Ruxolitinib] | 10.6 | 0.2 | 0 | 6.6 | 0 | 6.8
24 | COc1cc(CCc2cc(NC(=O)c3ccc(N4CC(C)NC(C)C4)cc3)n[nH]2)cc(OC)c1 (stereo not given) | 0 | 0 | 0 | 0 | 0 | 3.5
25 | Nc1ncn([C@H]2C[C@H](O)[C@@H](CO)O2)c(=O)n1 [Decitabine] | 14.2 | 0 | 0.1 | 19.9 | 0 | 17.4
26 | COc1cc2ncnc(Nc3cccc(Cl)c3F)c2cc1OC(=O)N1CCN(C)C[C@H]1C | 0 | 0 | 0 | 0 | 0 | 0
27 | CC(C)C[C@H](NC(=O)[C@H](CCc1ccccc1)NC(=O)CN1CCOCC1)C(=O)N[C@@H](Cc1ccccc1)C(=O)N[C@@H](CC(C)C)C(=O)[C@@]1(C)CO1 [Carfilzomib] | 33.4 | 27.6 | 29.2 | 30.5 | 29.2 | 32.3
28 | COc1cc2c(N3CCN(C(=O)Nc4ccc(OC(C)C)cc4)CC3)ncnc2cc1OCCCN1CCCCC1 [Tandutinib] | 0 | 0 | 0 | 0 | 0 | 0
29 | CCOC(=O)CCNc1cc(N2CCc3ccccc3CC2)nc(-c2ccccn2)n1 | 7.2 | 3.4 | 9.1 | 26.1 | 3.4 | 9.5
30 | O=C1CCc2c(Oc3ccc4c(c3)[C@@H]3[C@H](O4)[C@H]3c3nc4cc(C(F)(F)F)ccc4[nH]3)ccnc2N1 | 6.2 | 8.3 | 7.7 | 7.5 | 8.4 | 8.9
